# Test results published in the antibiotic and cytotoxicity screens of Wong et al. (2023).
# The other results are listed elsewhere or left out.
# Key:
# HSkMC = human skeletal muscle cells; assay: cytotoxicity call (relative viability < 0.9); settings: 10 µM
# HepG2 = assay: cytotoxicity call (relative viability < 0.9); settings: 10 µM
# S. aureus RN4220 = assay: growth inhibition call (relative growth <= 0.2); settings: 50 µM
SMILES,cytotoxicity call (HSkMC),cytotoxicity call (HepG2),growth inhibition call (S. aureus RN4220)
C[C@@H]1CN([C@@H](C)CO)C(=O)Cc2cc(NC(=O)CCN3CCOCC3)ccc2O[C@H]1CN(C)Cc1ccccc1,inactive,inactive,inactive
C[C@@H]1CCCCO[C@H](CN(C)Cc2ccccc2)[C@H](C)CN([C@@H](C)CO)C(=O)c2cc(NC(=O)Nc3ccc(F)cc3)ccc2O1,inactive,active,inactive
O=C(O)CCSc1n[nH]c(=O)[nH]c1=O,inactive,inactive,inactive
CCS(=O)(=O)N1C[C@]2(CN(C2)C(=O)Nc2c(noc2C)C)c2c(n(c3cc(ccc23)OC)C)[C@@H]1CO,inactive,inactive,inactive
CCNC(=O)N1CCC(O)CC1,inactive,inactive,inactive
C[C@@H]1CCCCO[C@H](CN(C)Cc2ccc(C(=O)O)cc2)[C@H](C)CN([C@H](C)CO)C(=O)c2cc(NC(=O)Cc3ccccc3)ccc2O1,inactive,inactive,inactive
OCCNC(=S)Nc1ccccc1,inactive,inactive,inactive
COc1ccc(NC(=O)Nc2ccc3c(c2)C(=O)N([C@H](C)CO)C[C@@H](C)[C@@H](CN(C)S(=O)(=O)c2ccc(Cl)cc2)OCCCC[C@H](C)O3)cc1,inactive,inactive,inactive
C[C@@H]1CN([C@@H](C)CO)C(=O)Cc2cc(NC(=O)C3CC3)ccc2O[C@@H]1CN(C)C(=O)Nc1ccc(F)cc1,inactive,inactive,inactive
C[C@H]1CN([C@@H](C)CO)C(=O)Cc2cc(NC(=O)CCN3CCOCC3)ccc2O[C@@H]1CN(C)CC1CCCCC1,inactive,inactive,inactive
C=CCN1C(=O)[C@]2(O[C@H](CCn3cc([C@H](O)c4ccccc4)nn3)[C@@H]([Si](C)(C)c3ccc(OC)cc3)[C@@H]2C)c2cc(N3CCOC3=O)ccc21,inactive,inactive,inactive
COc1ccc(S(=O)(=O)Nc2ccc3c(c2)CC(=O)N([C@H](C)CO)C[C@@H](C)[C@@H](CN(C)S(=O)(=O)c2ccc(OC)cc2)O3)cc1,inactive,inactive,inactive
C[C@H](CO)N1C[C@H](C)[C@H](CN(C)C(=O)Nc2ccc(C(F)(F)F)cc2)Oc2c(NC(=O)C3CCCCC3)cccc2C1=O,inactive,active,inactive
COc1ccc(NC(=O)Nc2ccc3c(c2)C(=O)N([C@@H](C)CO)C[C@@H](C)[C@@H](CN(C)C(=O)Nc2cccc4ccccc24)OCCCC[C@@H](C)O3)cc1,inactive,inactive,inactive
CC(C)NC(=O)N(C)C[C@@H]1Oc2c(NS(=O)(=O)c3ccccc3)cccc2C(=O)N([C@H](C)CO)C[C@@H]1C,inactive,inactive,inactive
O=C(C[C@@H]1C=C[C@@H](NS(=O)(=O)c2ccccc2F)[C@H](CO)O1)NCCCN1CCOCC1,inactive,inactive,inactive
O=C(CN1CCOCC1)NCC[C@@H]1CC[C@H](NC(=O)Cc2ccccn2)[C@@H](CO)O1,inactive,inactive,inactive
COc1ccc(S(=O)(=O)Nc2ccc3c(c2)C(=O)N([C@@H](C)CO)C[C@@H](C)[C@H](CN(C)C(=O)c2ccccc2)OCCCC[C@H](C)O3)cc1,inactive,inactive,inactive
C[C@@H]1CCCCO[C@@H](CN(C)S(C)(=O)=O)[C@H](C)CN([C@@H](C)CO)C(=O)c2cc(NC(=O)Nc3cccc4ccccc34)ccc2O1,inactive,inactive,inactive
O=C(C[C@@H]1CC[C@@H]2[C@H](COC[C@H](O)CN2C(=O)c2ccc3c(c2)OCO3)O1)NCCN1CCCC1,inactive,inactive,inactive

SMILES,cytotoxicity call (HSkMC),cytotoxicity call (HepG2),growth inhibition call (S. aureus RN4220)
CCOCCOc1ccccc1C(N)=O,inactive,inactive,inactive
C[C@@H]1CN([C@@H](C)CO)C(=O)c2cc(NC(=O)Nc3ccc(C(F)(F)F)cc3)ccc2O[C@H]1CN(C)Cc1ccc(C(F)(F)F)cc1,active,active,inactive
CCCC(=O)Nc1ccc2c(c1)OC[C@@H](C)N(Cc1cc(-c3ccccc3)on1)C[C@@H](C)[C@H](OC)CN(C)C2=O,inactive,inactive,inactive
COc1ccccc1CNC(=O)C[C@H]1C[C@H]2c3cc(NC(=O)C4CCOCC4)ccc3O[C@H]2[C@@H](CO)O1,inactive,inactive,inactive
N#CC(c1ccccc1)(c1ccccc1)c1ccccc1Cl,inactive,inactive,inactive
COc1cccc(S(=O)(=O)Nc2ccc3c(c2)OC[C@@H](C)N(C(=O)Cc2cccnc2)C[C@H](C)[C@@H](OC)CN(C)C3=O)c1,inactive,inactive,inactive
Cc1ccc(-c2cnc3c(c2)C(=O)N([C@H](C)CO)C[C@H](C)[C@@H](CN(C)C(=O)Cc2cccnc2)O3)cc1,inactive,inactive,inactive
COc1ccc(S(=O)(=O)N(C)C[C@@H]2OCCCC[C@H](C)Oc3ccc(NC(=O)Nc4c(C)noc4C)cc3C(=O)N([C@H](C)CO)C[C@H]2C)cc1,inactive,inactive,inactive
Cl.Clc1ccc2c(c1)CCc1cccnc1C2=C1CCNCC1,inactive,active,inactive
Cc1cncc2cccc(S(=O)(=O)N[C@H]3CN[C@@H](COC(=O)NCCOCCOCCN)C3)c12,inactive,inactive,inactive
C[C@@H]1CCCCO[C@@H](CN(C)Cc2ccncc2)[C@H](C)CN([C@H](C)CO)C(=O)c2cc(NC(=O)Nc3ccccc3)ccc2O1,inactive,inactive,inactive
C[C@@H]1CN([C@H](C)CO)S(=O)(=O)c2ccc(Br)cc2O[C@H]1CN(C)CC1CCOCC1,inactive,inactive,inactive
CN(C)C(=O)N1CCOC[C@@]2(C1)CN(c1cnn(C)c1)C(=O)CO2,inactive,inactive,inactive
COc1ccccc1NC(=O)N(C)C[C@H]1Oc2ncc(Br)cc2C(=O)N([C@H](C)CO)C[C@@H]1C,inactive,inactive,inactive
COCC(=O)NCc1n[nH]c(=O)c2ccccc12,inactive,inactive,inactive
COC(=O)c1ccc([C@H](c2c(N)n(CC(C)C)c(=O)[nH]c2=O)N2CCOCC2)cc1,inactive,inactive,inactive
C[C@@H]1CN([C@H](C)CO)C(=O)c2cc(NC(=O)Cc3cn(C)c4ccccc34)ccc2O[C@H]1CN(C)Cc1ccc(Cl)c(Cl)c1,active,inactive,inactive
CN(C)C(=O)CN1C[C@]23CN(Cc4cnn(C)c4)C[C@@H](C[C@@H]2S1(=O)=O)O3,inactive,inactive,inactive
C[C@@H]1CN([C@H](C)CO)C(=O)c2cccc(NC(=O)CCCCCC(=O)Nc3ccccc3N)c2O[C@H]1CN(C)Cc1ccc(-c2ccccc2)cc1,inactive,inactive,inactive
Cc1ccc(S(=O)(=O)N(C)C[C@@H]2Oc3ncc(C#CC4(O)CCCC4)cc3C(=O)N([C@H](C)CO)C[C@H]2C)cc1,inactive,inactive,inactive

SMILES,cytotoxicity call (HSkMC),cytotoxicity call (HepG2),growth inhibition call (S. aureus RN4220)
O=C(N[C@@H]1CC[C@@H](CCNS(=O)(=O)c2ccc(F)cc2)O[C@@H]1CO)C1CC1,inactive,inactive,inactive
C[C@@H]1CCCCO[C@H](CN(C)C(=O)Nc2ccc(F)cc2)[C@@H](C)CN([C@@H](C)CO)C(=O)c2cc(NS(=O)(=O)c3ccccc3)ccc2O1,inactive,inactive,inactive
CC1(C)C(=O)NCCN1C(=O)C1CC1,inactive,inactive,inactive
CCCOc1ccc(S(=O)(=O)N2CCN(CCO)CC2)cc1-c1nc2c(CCC)cn(CC)c2c(=O)[nH]1,inactive,inactive,inactive
Cc1ccc(S(=O)(=O)Nc2ccc3c(c2)CC(=O)N([C@H](C)CO)C[C@@H](C)[C@H](CN(C)S(=O)(=O)c2ccccc2)O3)cc1,inactive,inactive,inactive
Cc1ccc(S(=O)(=O)Nc2ccc3c(c2)CC(=O)N([C@H](C)CO)C[C@@H](C)[C@H](CN(C)CC2CC2)O3)cc1,inactive,inactive,inactive
C[C@@H]1CN([C@@H](C)CO)C(=O)c2cc(NC(=O)Nc3ccc(C(F)(F)F)cc3)ccc2O[C@@H](C)CCCCO[C@H]1CN(C)C(=O)C1CCCCC1,inactive,inactive,inactive
Cc1c(C#N)c(Sc2ccccc2Cl)nc2ccccc12,inactive,inactive,inactive
O=C(C[C@H]1CC[C@@H]2[C@H](COC[C@@H](O)CN2C(=O)Nc2cccc(F)c2)O1)NCCCN1CCOCC1,inactive,inactive,inactive
C[C@@H]1CCCCO[C@@H](CN(C)C(=O)CCC(F)(F)F)[C@H](C)CN([C@@H](C)CO)C(=O)c2cc(NC(=O)NC3CCCCC3)ccc2O1,inactive,inactive,inactive
C[C@H]1CN([C@@H](C)CO)C(=O)Cc2cc(NC(=O)Cc3ccccc3)ccc2O[C@H]1CN(C)Cc1ccc(Cl)c(Cl)c1,inactive,active,inactive
Cc1ccc2nc3c(cc(C(=O)NCCN4CCOCC4)c(=N)n3C[C@H]3CCCO3)c(=O)n2c1,inactive,inactive,inactive
Cc1noc(C)c1NC(=O)N(C)C[C@@H]1OCCCC[C@H](C)Oc2ccc(NC(=O)Nc3ccccc3)cc2C(=O)N([C@@H](C)CO)C[C@@H]1C,inactive,inactive,inactive
COc1cccc(S(=O)(=O)N2C[C@H](O)COC[C@@H]3O[C@@H](CC(=O)N4CCOCC4)CC[C@H]32)c1,inactive,inactive,inactive
C[C@@H]1CN([C@@H](C)CO)C(=O)Cc2cc(NC(=O)c3ccncc3)ccc2O[C@@H]1CN(C)Cc1ccncc1,inactive,inactive,inactive
CCN(CC)C(=O)C1CCNCC1,inactive,inactive,inactive
C[C@@H]1CN([C@@H](C)CO)C(=O)c2cccc(NS(=O)(=O)c3ccc(F)cc3)c2O[C@H]1CN(C)C(=O)Nc1cccc2ccccc12,active,inactive,inactive
C[C@@H]1CCCCO[C@@H](CN(C)C(=O)Nc2cccc3ccccc23)[C@H](C)CN([C@H](C)CO)C(=O)c2cc(NC(=O)c3ccccc3)ccc2O1,inactive,inactive,inactive
